According to the supplement of paper PMC8728848:
This is one part of the list.

Legend:
Assay in all cases: glycan array binding signal (z-score within array); higher = stronger binding
Conditions in all cases: glycan notation: IUPAC condensed, linker removed
[1] = target: GlcNAc(b1-2)Gal(b1-3)GalNAc
Summary of the method: (§1)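 The binding signal is a Z-score computed within each array and averaged over linkers. Arrays of the same protein sequence at different concentrations or buffers were also averaged together. Data originate from 3228 arrays in the Consortium for Functional Glycomics database, kept only where the protein sequence was available.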

[2] = target: GlcNAc(b1-2)Man(a1-3)[GlcNAc(b1-2)Man(a1-6)]Man(b1-4)GlcNAc(b1-4)GlcNAc
Summary of the method: as §1

[3] = target: GlcNAc(b1-2)Man(a1-3)[GlcNAc(b1-2)Man(a1-6)]Man(b1-4)GlcNAc(b1-4)[Fuc(a1-6)]GlcNAc
Summary of the method: as §1

[4] = target: GlcNAc(b1-2)Man(a1-3)[GlcNAc(b1-4)][GlcNAc(b1-2)Man(a1-6)]Man(b1-4)GlcNAc(b1-4)GlcNAc
Summary of the method: as §1

[5] = target: GlcNAc(b1-2)Man(a1-3)[GlcNAc(b1-4)][GlcNAc(b1-2)Man(a1-6)]Man(b1-4)GlcNAc(b1-4)[Fuc(a1-6)]GlcNAc
Summary of the method: as §1

[6] = target: GlcNAc(b1-2)[GlcNAc(b1-4)]Man(a1-3)[GlcNAc(b1-2)Man(a1-6)]Man(b1-4)GlcNAc(b1-4)GlcNAc
Summary of the method: as §1

[7] = target: GlcNAc(b1-2)[GlcNAc(b1-4)]Man(a1-3)[GlcNAc(b1-4)][GlcNAc(b1-2)Man(a1-6)]Man(b1-4)GlcNAc(b1-4)GlcNAc
Summary of the method: as §1

[8] = target: GlcNAc(b1-2)[GlcNAc(b1-4)]Man(a1-3)[GlcNAc(b1-4)][GlcNAc(b1-2)[GlcNAc(b1-6)]Man(a1-6)]Man(b1-4)GlcNAc(b1-4)GlcNAc
Summary of the method: as §1

[9] = target: GlcNAc(b1-2)[GlcNAc(b1-4)]Man(a1-3)[GlcNAc(b1-4)][GlcNAc(b1-2)[GlcNAc(b1-6)]Man(a1-6)]Man(b1-4)GlcNAc(b1-4)[Fuc(a1-6)]GlcNAc
Summary of the method: as §1

[10] = target: GlcNAc(b1-2)[GlcNAc(b1-6)]Man(a1-6)[GlcNAc(b1-2)Man(a1-3)]Man(b1-4)GlcNAc(b1-4)GlcNAc
Summary of the method: as §1

[11] = target: GlcNAc(b1-2)[GlcNAc(b1-6)]Man(a1-6)[GlcNAc(b1-2)Man(a1-3)]Man(b1-4)GlcNAc(b1-4)[Fuc(a1-6)]GlcNAc
Summary of the method: as §1

[12] = target: GlcNAc(b1-2)[GlcNAc(b1-6)]Man(a1-6)[GlcNAc(b1-4)][GlcNAc(b1-2)Man(a1-3)]Man(b1-4)GlcNAc(b1-4)GlcNAc
Summary of the method: as §1

GlcNAc(b1-3)Fuc = target: GlcNAc(b1-3)Fuc
Summary of the method: as §1

GlcNAc(b1-3)Gal = target: GlcNAc(b1-3)Gal
Summary of the method: as §1

[13] = target: GlcNAc(b1-3)Gal(b1-3)GalNAc
Summary of the method: as §1

GlcNAc(b1-3)Gal(b1-4)Glc = target: GlcNAc(b1-3)Gal(b1-4)Glc
Summary of the method: as §1

[14] = target: GlcNAc(b1-3)Gal(b1-4)GlcNAc
Summary of the method: as §1

[15] = target: GlcNAc(b1-3)Gal(b1-4)GlcNAc(b1-2)Man(a1-3)[GlcNAc(b1-3)Gal(b1-4)GlcNAc(b1-2)Man(a1-6)]Man(b1-4)GlcNAc(b1-4)GlcNAc
Summary of the method: as §1

[16] = target: GlcNAc(b1-3)Gal(b1-4)GlcNAc(b1-2)Man(a1-3)[GlcNAc(b1-3)Gal(b1-4)GlcNAc(b1-2)Man(a1-6)]Man(b1-4)GlcNAc(b1-4)[Fuc(a1-6)]GlcNAc
Summary of the method: as §1

[17] = target: GlcNAc(b1-3)Gal(b1-4)GlcNAc(b1-2)[GlcNAc(b1-3)Gal(b1-4)GlcNAc(b1-6)]Man(a1-6)[GlcNAc(b1-3)Gal(b1-4)GlcNAc(b1-2)Man(a1-3)]Man(b1-4)GlcNAc(b1-4)GlcNAc
Summary of the method: as §1

[18] = target: GlcNAc(b1-3)Gal(b1-4)GlcNAc(b1-3)Gal(b1-4)GlcNAc
Summary of the method: as §1

[19] = target: GlcNAc(b1-3)Gal(b1-4)GlcNAc(b1-3)Gal(b1-4)GlcNAc(b1-2)Man(a1-3)[GlcNAc(b1-3)Gal(b1-4)GlcNAc(b1-3)Gal(b1-4)GlcNAc(b1-2)Man(a1-6)]Man(b1-4)GlcNAc(b1-4)GlcNAc
Summary of the method: as §1

[20] = target: GlcNAc(b1-3)Gal(b1-4)GlcNAc(b1-3)Gal(b1-4)GlcNAc(b1-2)Man(a1-3)[GlcNAc(b1-3)Gal(b1-4)GlcNAc(b1-3)Gal(b1-4)GlcNAc(b1-2)Man(a1-6)]Man(b1-4)GlcNAc(b1-4)[Fuc(a1-6)]GlcNAc
Summary of the method: as §1

[21] = target: GlcNAc(b1-3)Gal(b1-4)GlcNAc(b1-3)Gal(b1-4)GlcNAc(b1-2)[GlcNAc(b1-3)Gal(b1-4)GlcNAc(b1-3)Gal(b1-4)GlcNAc(b1-6)]Man(a1-6)[GlcNAc(b1-3)Gal(b1-4)GlcNAc(b1-3)Gal(b1-4)GlcNAc(b1-2)Man(a1-3)]Man(b1-4)GlcNAc(b1-4)[Fuc(a1-6)]GlcNAc
Summary of the method: as §1

[22] = target: GlcNAc(b1-3)Gal(b1-4)GlcNAc(b1-3)Gal(b1-4)GlcNAc(b1-3)Gal(b1-4)GlcNAc(b1-2)Man(a1-3)[GlcNAc(b1-3)Gal(b1-4)GlcNAc(b1-3)Gal(b1-4)GlcNAc(b1-3)Gal(b1-4)GlcNAc(b1-2)Man(a1-6)]Man(b1-4)GlcNAc(b1-4)GlcNAc
Summary of the method: as §1

[23] = target: GlcNAc(b1-3)Gal(b1-4)GlcNAc(b1-3)Gal(b1-4)GlcNAc(b1-3)Gal(b1-4)GlcNAc(b1-2)Man(a1-3)[GlcNAc(b1-3)Gal(b1-4)GlcNAc(b1-3)Gal(b1-4)GlcNAc(b1-3)Gal(b1-4)GlcNAc(b1-2)Man(a1-6)]Man(b1-4)GlcNAc(b1-4)[Fuc(a1-6)]GlcNAc
Summary of the method: as §1

[24] = target: GlcNAc(b1-3)Gal(b1-4)GlcNAc(b1-3)Gal(b1-4)GlcNAc(b1-3)Gal(b1-4)GlcNAc(b1-2)[GlcNAc(b1-3)Gal(b1-4)GlcNAc(b1-3)Gal(b1-4)GlcNAc(b1-3)Gal(b1-4)GlcNAc(b1-6)]Man(a1-6)[GlcNAc(b1-3)Gal(b1-4)GlcNAc(b1-3)Gal(b1-4)GlcNAc(b1-3)Gal(b1-4)GlcNAc(b1-2)Man(a1-3)]Man(b1-4)GlcNAc(b1-4)[Fuc(a1-6)]GlcNAc
Summary of the method: as §1

[25] = target: GlcNAc(b1-3)Gal(b1-4)GlcNAc(b1-3)Gal(b1-4)GlcNAc(b1-3)Gal(b1-4)GlcNAc(b1-3)Gal(b1-4)GlcNAc(b1-2)Man(a1-3)[GlcNAc(b1-3)Gal(b1-4)GlcNAc(b1-3)Gal(b1-4)GlcNAc(b1-3)Gal(b1-4)GlcNAc(b1-3)Gal(b1-4)GlcNAc(b1-2)Man(a1-6)]Man(b1-4)GlcNAc(b1-4)GlcNAc
Summary of the method: as §1

[26] = target: GlcNAc(b1-3)Gal(b1-4)GlcNAc(b1-3)Gal(b1-4)GlcNAc(b1-3)Gal(b1-4)GlcNAc(b1-3)Gal(b1-4)GlcNAc(b1-2)Man(a1-3)[GlcNAc(b1-3)Gal(b1-4)GlcNAc(b1-3)Gal(b1-4)GlcNAc(b1-3)Gal(b1-4)GlcNAc(b1-3)Gal(b1-4)GlcNAc(b1-2)Man(a1-6)]Man(b1-4)GlcNAc(b1-4)[Fuc(a1-6)]GlcNAc
Summary of the method: as §1

[27] = target: GlcNAc(b1-3)Gal(b1-4)GlcNAc(b1-3)Gal(b1-4)GlcNAc(b1-3)Gal(b1-4)GlcNAc(b1-3)Gal(b1-4)GlcNAc(b1-2)[GlcNAc(b1-3)Gal(b1-4)GlcNAc(b1-3)Gal(b1-4)GlcNAc(b1-3)Gal(b1-4)GlcNAc(b1-3)Gal(b1-4)GlcNAc(b1-6)]Man(a1-6)[GlcNAc(b1-3)Gal(b1-4)GlcNAc(b1-3)Gal(b1-4)GlcNAc(b1-3)Gal(b1-4)GlcNAc(b1-3)Gal(b1-4)GlcNAc(b1-2)Man(a1-3)]Man(b1-4)GlcNAc(b1-4)[Fuc(a1-6)]GlcNAc
Summary of the method: as §1

[28] = target: GlcNAc(b1-3)Gal(b1-4)GlcNAc(b1-3)Gal(b1-4)GlcNAc(b1-3)GalNAc
Summary of the method: as §1

[29] = target: GlcNAc(b1-3)Gal(b1-4)GlcNAc(b1-3)GalNAc
Summary of the method: as §1

[30] = target: GlcNAc(b1-3)Gal(b1-4)GlcNAc(b1-3)[GlcNAc(b1-3)Gal(b1-4)GlcNAc(b1-3)]GalNAc
Summary of the method: as §1

[31] = target: GlcNAc(b1-3)Gal(b1-4)GlcNAc(b1-6)[Gal(b1-3)]GalNAc
Summary of the method: as §1

[32] = target: GlcNAc(b1-3)Gal(b1-4)GlcNAc(b1-6)[GlcNAc(b1-3)Gal(b1-3)]GalNAc
Summary of the method: as §1

[33] = target: GlcNAc(b1-3)Gal(b1-4)GlcNAc(b1-6)[GlcNAc(b1-3)]Gal(b1-4)GlcNAc
Summary of the method: as §1

GlcNAc(b1-3)GalNAc = target: GlcNAc(b1-3)GalNAc
Summary of the method: as §1

B1: B160 (Bifidobacterium sp) (protein)
chain: MVSHNKRIVAALAAVAAMGIGLAGCGGSDTAGDTKSGSDGGVVNITYMHRLPDSEGMTLVNDIVAKWNKEHPNIQVKATKFDGNAADMIKKLETDVKAGNAPDLAQVGYAEVPEVFTKGLLQDVTDEAAKYKDDFASGPFALMQVDGKTYGLPQDTGPLTYFYNAAEFEKLGITVPKTADELIETAKKTAAQGKYIMTFTPDEAMMMMSGQAGASGPWYKVDGNSWVVNTQTKGSKAVADVYQQLIDNKAALTNPRWDASFDNSIQSGQLIGTVAAAWEAPLFIDSAGGTGAGEWKVTQLGDWFGNGTKTGANGGSGVAVLKGSKHPAEAMEFLDWFNTQVDDLVSQGLVVAATTADAKTPQKWSDYFSGQDVMAEFKTANDNMGDFTYMPGFSAVGAAMKQTAAKAADGSAKVSDVFDTAQKTSVDTLKNLGLSVKE
- glycan array binding signal (z-score) [1]: -0.155
- glycan array binding signal (z-score) [2]: -0.174
- glycan array binding signal (z-score) [3]: -0.113
- glycan array binding signal (z-score) [4]: -0.197
- glycan array binding signal (z-score) [5]: -0.19
- glycan array binding signal (z-score) [6]: -0.178
- glycan array binding signal (z-score) [7]: -0.16
- glycan array binding signal (z-score) [8]: -0.176
- glycan array binding signal (z-score) [9]: -0.18
- glycan array binding signal (z-score) [10]: -0.166
- glycan array binding signal (z-score) [11]: -0.112
- glycan array binding signal (z-score) [12]: -0.149
- glycan array binding signal (z-score) (GlcNAc(b1-3)Fuc): -0.132
- glycan array binding signal (z-score) (GlcNAc(b1-3)Gal): -0.153
- glycan array binding signal (z-score) [13]: -0.171
- glycan array binding signal (z-score) (GlcNAc(b1-3)Gal(b1-4)Glc): -0.17
- glycan array binding signal (z-score) [14]: -0.175
- glycan array binding signal (z-score) [15]: -0.174
- glycan array binding signal (z-score) [16]: -0.081
- glycan array binding signal (z-score) [17]: -0.158
- glycan array binding signal (z-score) [18]: -0.139
- glycan array binding signal (z-score) [19]: -0.131
- glycan array binding signal (z-score) [20]: -0.139
- glycan array binding signal (z-score) [21]: -0.12
- glycan array binding signal (z-score) [22]: -0.179
- glycan array binding signal (z-score) [23]: -0.139
- glycan array binding signal (z-score) [24]: -0.094
- glycan array binding signal (z-score) [25]: -0.149
- glycan array binding signal (z-score) [26]: -0.164
- glycan array binding signal (z-score) [27]: -0.174
- glycan array binding signal (z-score) [28]: -0.158
- glycan array binding signal (z-score) [29]: -0.17
- glycan array binding signal (z-score) [30]: -0.134
- glycan array binding signal (z-score) [31]: -0.145
- glycan array binding signal (z-score) [32]: -0.164
- glycan array binding signal (z-score) [33]: -0.173
- glycan array binding signal (z-score) (GlcNAc(b1-3)GalNAc): -0.154
